The list shows a part of the results. Single values are uncertain, as repeats are few or missing.
Assays:
Assay in all cases: cell count relative to DMSO control; melanoma cells; higher = more viable cells
Conditions in all cases: library dose: low library concentration; 72 h
MZ2-MEL = system: MZ2-MEL
MeWo = system: MeWo
RPMI7951 = system: RPMI7951
RVH-421 = system: RVH-421
SkMel28 = system: SkMel28
SkMel2 = system: SkMel2
SkMel30 = system: SkMel30
UACC62 = system: UACC62
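Note: cell number obtained by counting DAPI-stained nuclei in high-throughput microscope images with image analysis software, screen run in 1,536-well plates.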

`Nc1ccn([C@@H]2O[C@H](CO)[C@@H](O)C2(F)F)c(=O)n1` [gemcitabine] + OCc1c[nH]c2ccccc12 [Indole-3-carbinol] (first compound 0.0004 µM, partner dose 0.8 µM) was tested, and the cell count (MZ2-MEL) was 103%, the cell count (MeWo) was 92.6% and the cell count (RPMI7951) was 84.8%. The cell count (RVH-421) was 99.7%, the cell count (SkMel28) was 81.9% and the cell count (SkMel2) was 96.7%. The cell count (SkMel30) was 123% and the cell count (UACC62) was 84.9%.

Work on `CC(=O)O[C@@]12CO[C@@H]1C[C@H](O)[C@@]1(C)C(=O)[C@H](O)C3=C(C)[C@@H](OC(=O)[C@H](O)[C@@H](NC(=O)OC(C)(C)C)c4ccccc4)C[C@@](O)([C@@H](OC(=O)c4ccccc4)[C@H]21)C3(C)C` [Docetaxel] + CN1CCN(c2ccc3nc(-c4c(N)c5c(F)cccc5[nH]c4=O)[nH]c3c2)CC1 [Dovitinib] (first compound 0.0001 µM, partner dose 0.1 µM) yielded a cell count (MZ2-MEL) of 32.3%, a cell count (MeWo) of 35.5% and a cell count (RPMI7951) of 30.7%. The cell count (RVH-421) was 61%, the cell count (SkMel28) was 31.1% and the cell count (SkMel2) was 44.9%. The cell count (SkMel30) was 26.9% and the cell count (UACC62) was 31.7%.

Compound `CC(=O)c1c(C)c2cnc(Nc3ccc(N4CCNCC4)cn3)nc2n(C2CCCC2)c1=O` [palbociclib] + Clc1ccc(Nc2nnc(Cc3ccncc3)c3ccccc23)cc1 [vatalanib] (first compound 0.04 µM, partner dose 2 µM) has a cell count (MZ2-MEL) of 81.1%, a cell count (MeWo) of 61.2% and a cell count (RPMI7951) of 79.2%. The cell count (RVH-421) was 83.1%, the cell count (SkMel28) was 79.4% and the cell count (SkMel2) was 83.8%. For the same compound, the cell count (SkMel30) was 78.4% and the cell count (UACC62) was 83.5%.

`CC(=O)O[C@@]12CO[C@@H]1C[C@H](O)[C@@]1(C)C(=O)[C@H](O)C3=C(C)[C@@H](OC(=O)[C@H](O)[C@@H](NC(=O)OC(C)(C)C)c4ccccc4)C[C@@](O)([C@@H](OC(=O)c4ccccc4)[C@H]21)C3(C)C` [Docetaxel] + CNC(=O)c1cc(Oc2ccc(NC(=O)Nc3ccc(Cl)c(C(F)(F)F)c3)cc2)ccn1 [sorafenib] (first compound 0.0001 µM, partner dose 0.4 µM) showed a cell count (MZ2-MEL) of 42.3%, a cell count (MeWo) of 44.1% and a cell count (RPMI7951) of 39%. The cell count (RVH-421) was 54.8%, the cell count (SkMel28) was 46% and the cell count (SkMel2) was 33.6%. It also gave a cell count (SkMel30) of 30.8% and a cell count (UACC62) of 40.5%.

`Nc1ccn([C@@H]2O[C@H](CO)[C@@H](O)C2(F)F)c(=O)n1` [gemcitabine] + Cn1nnc2c(C(N)=O)ncn2c1=O [temozolomide] (first compound 0.0004 µM, partner dose 2 µM) was tested, and the cell count (MZ2-MEL) was 104%, the cell count (MeWo) was 102% and the cell count (RPMI7951) was 87.9%. It also gave a cell count (RVH-421) of 62%, a cell count (SkMel28) of 76.7% and a cell count (SkMel2) of 103%. The cell count (SkMel30) was 91.2% and the cell count (UACC62) was 76.3%.

With `Nc1ncn([C@H]2C[C@H](O)[C@@H](CO)O2)c(=O)n1` [decitabine] + Cn1nnc2c(C(N)=O)ncn2c1=O [temozolomide] (first compound 0.1 µM, partner dose 2 µM) the cell count (MZ2-MEL) was 88.2%, the cell count (MeWo) was 94.8% and the cell count (RPMI7951) was 76.7%. It also gave a cell count (RVH-421) of 92%, a cell count (SkMel28) of 87.9% and a cell count (SkMel2) of 97.2%. It also gave a cell count (SkMel30) of 103% and a cell count (UACC62) of 66.7%.

`CC(=O)O[C@@]12CO[C@@H]1C[C@H](O)[C@@]1(C)C(=O)[C@H](O)C3=C(C)[C@@H](OC(=O)[C@H](O)[C@@H](NC(=O)OC(C)(C)C)c4ccccc4)C[C@@](O)([C@@H](OC(=O)c4ccccc4)[C@H]21)C3(C)C` [Docetaxel] + Cc1cc(Nc2cc(N3CCN(C)CC3)nc(/C=C/c3ccccc3)n2)n[nH]1 [ENMD2076] (first compound 0.0001 µM, partner dose 0.04 µM) showed a cell count (MZ2-MEL) of 55.6%, a cell count (MeWo) of 61.3% and a cell count (RPMI7951) of 37.2%. For the same compound, the cell count (RVH-421) was 56.4%, the cell count (SkMel28) was 41.2% and the cell count (SkMel2) was 46.5%. For the same compound, the cell count (SkMel30) was 48.5% and the cell count (UACC62) was 66.9%.

`Nc1ncn([C@H]2C[C@H](O)[C@@H](CO)O2)c(=O)n1` [decitabine] + Cc1nc(Nc2ncc(C(=O)Nc3c(C)cccc3Cl)s2)cc(N2CCN(CCO)CC2)n1 [dasatanib] (first compound 0.1 µM, partner dose 0.004 µM) gave a cell count (MZ2-MEL) of 92%, a cell count (MeWo) of 85.4% and a cell count (RPMI7951) of 71.7%. The cell count (RVH-421) was 92%, the cell count (SkMel28) was 52.3% and the cell count (SkMel2) was 106%. The cell count (SkMel30) was 123% and the cell count (UACC62) was 72.9%.

`Nc1nc(F)nc2c1ncn2[C@@H]1O[C@H](CO)[C@@H](O)[C@@H]1O` [fludarabine] + Nc1ncn([C@H]2C[C@H](O)[C@@H](CO)O2)c(=O)n1 [decitabine] (first compound 0.2 µM, partner dose 0.1 µM) was tested, and the cell count (MZ2-MEL) was 89%, the cell count (MeWo) was 25% and the cell count (RPMI7951) was 64.6%. For the same compound, the cell count (RVH-421) was 78.7%, the cell count (SkMel28) was 59% and the cell count (SkMel2) was 3.44%. For the same compound, the cell count (SkMel30) was 16.7% and the cell count (UACC62) was 71.3%.

Source: the supplement of paper PMC4604168 (melanoma cell lines)
